Hit rate of the full screen: of about 45,000 compounds, about 65 (0.1%) were called active. The call rests on the fitted dose curve; in most records, active means well fitted activation curve with a large enough effect; inconclusive means small, poorly fitted or top-dose-only effect; inactive means no such curve, though single readings can be large or run the other way. Some of the results follow.
molecular target: Galactocerebrosidase (Homo sapiens) (UniProt P54803); assay: A Novel Cell-Based Assay to Identify Small Molecules for B -Galactocerebrosidase; details: 145M-Twi-hGALC-G270D cells (Twitcher mouse brain line with human GALC G270D), HMU-beta-Gal fluorescence, 48 h; series mostly up to 57.5 µM; activation: at the top concentration; further: 0% is about no effect; nearly all actives have a fitted effect of over 65% in size
In short: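 Fluorescence readout: HMU-β-gal cleavage by mutant GALC (0.1 mM final, citrate/phosphate pH 5.2 with 1 mg/mL taurocholate), stopped with carbonate/bicarbonate plus Triton X-100. Cells: murine Twitcher 145M-Twi expressing human G270D GALC; qHTS for activators.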

UniProt P54803, sequence (P54803 whole entry, looked up): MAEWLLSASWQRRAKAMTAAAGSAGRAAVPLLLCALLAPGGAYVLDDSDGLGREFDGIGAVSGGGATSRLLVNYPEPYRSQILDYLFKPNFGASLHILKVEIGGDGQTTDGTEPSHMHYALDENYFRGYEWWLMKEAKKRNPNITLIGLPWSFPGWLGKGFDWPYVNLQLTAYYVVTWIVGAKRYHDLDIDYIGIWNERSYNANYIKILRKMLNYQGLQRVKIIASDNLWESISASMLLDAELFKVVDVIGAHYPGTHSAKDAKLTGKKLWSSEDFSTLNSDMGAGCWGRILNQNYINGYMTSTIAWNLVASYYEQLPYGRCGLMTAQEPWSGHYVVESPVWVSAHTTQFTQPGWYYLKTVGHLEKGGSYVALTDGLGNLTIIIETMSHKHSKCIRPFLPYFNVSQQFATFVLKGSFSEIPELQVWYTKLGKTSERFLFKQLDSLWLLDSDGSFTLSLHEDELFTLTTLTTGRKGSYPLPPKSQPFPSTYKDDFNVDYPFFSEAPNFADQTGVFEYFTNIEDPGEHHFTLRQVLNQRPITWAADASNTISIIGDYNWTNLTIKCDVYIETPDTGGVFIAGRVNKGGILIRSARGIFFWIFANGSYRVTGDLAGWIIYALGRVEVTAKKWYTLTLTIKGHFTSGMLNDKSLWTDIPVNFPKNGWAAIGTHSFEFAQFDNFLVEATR

activation, inactive:
Cc1ccc(C)c(NC(=O)C2CCCN(S(=O)(=O)c3ccc4[nH]c(=O)ccc4c3)C2)c1 (configuration not stated) -5.13%
Cc1ccc(C(=O)c2oc3ccccc3c2NC(=O)c2cc(-c3ccccc3)on2)cc1F 1.66%
CC(=O)c1ccc(N2CCN(C(=O)c3cc4cc5cc(C)ccc5nc4s3)CC2)cc1 -13.8%
CCN(CC)c1cc(C)c2cc(NC(=O)/C=C/c3ccc(C)cc3)ccc2n1 -6.46%
CCOc1ccc(CNC(=O)c2c(C)nn(-c3ccc(F)cc3)c2-n2cccc2)cc1 -30%
CC(=O)Nc1nonc1-c1nnc(SCC(=O)Nc2ccc(C)cc2C)n1C -5.29%
COc1ccc(NC(=O)[C@@H](c2ccccc2)N2Cc3ccccc3C2=O)cc1OC -15.1%
O=C(Nc1ccc(SC(F)F)cc1)c1cc(-c2ccc3c(c2)OCCO3)on1 -14.1%
Cc1noc(Cn2c(=O)c3cc4c(cc3n(CC(=O)Nc3cccc(Cl)c3)c2=O)OCO4)n1 -8.58%
Cc1ccc(CSCC(=O)N2CCN(c3cc(Cl)ccc3C)CC2)cc1 -12.1%
C=CCNC(N)=S -11%
Cc1ccc(-n2nc(C(=O)NCCN(C)C)c(=O)n(C)c2=O)cc1 -16.1%
CC1CCc2c(sc(NC(=O)COc3ccccc3)c2C(=O)Nc2ccccc2Cl)C1 (configuration not stated) -11.1%
CCCCOc1ccc(-c2cc3c(=O)n(CC(=O)Nc4ccc(Cl)cc4Cl)ccn3n2)cc1 3.11%
O=C(CSc1nc2c(cnn2-c2ccc(F)cc2)c(=O)[nH]1)Nc1ccc(Br)cc1 -13.6%
Cn1c(=O)[nH]c(=O)c2c1nc1n(CCO)c(-c3ccccc3)cn21 -8.07%
CC(=O)c1ccc2c(c1)N(CCCN(C)C)c1ccccc1S2 -0.912%
CCOc1cccc2cc(-c3nnc(Nc4ccc(F)c(Cl)c4)s3)c(=O)oc12 -3.64%
Cc1ccc(-c2nn(CC(=O)NC3CCCCC3)c3c2cnc2ccc(F)cc23)cc1C -7.07%
COc1ccc(C2C(C(N)=O)=C(C)Nc3nc(-c4ccccc4Cl)nn32)cc1 (configuration not stated) -14.2%
COc1cccc(NC(=O)CC2C(=O)OCCN2Cc2ccccc2)c1 (configuration not stated) -10%
Cc1[nH]c2ccccc2c1C(=O)C(=O)NC1CC(=O)N(c2cccc(F)c2)C1 (configuration not stated) -16%
Cc1ccc2oc(C(=O)N(Cc3ccccc3F)C3CCS(=O)(=O)C3)c(C)c2c1 (configuration not stated) -29.9%
Cc1cccc(C)c1Nc1c(-c2ccc(Cl)s2)nc2ncccn12 -10.9%
Cc1ccc(Cl)cc1NC(=O)CN(C)S(=O)(=O)c1ccc2c(c1)n(C)c(=O)c(=O)n2C -7.56%
COc1cccc(CNC(=O)c2cc(=O)[nH]c3ccc(S(=O)(=O)N4CCCCC4)cc23)c1 -6.88%
COc1ccccc1CNC(=O)c1ccc2c(c1)sc1nc(-c3ccc(F)cc3)cn12 -8.09%
CC(C)C(=O)OC1=CN(Cc2ccccc2)S(=O)(=O)c2ccccc21 -8.03%
CCN(CC)c1ccc2cc(-c3nc(-c4ccccc4F)no3)c(=O)oc2c1 1.25%
Cc1ccc(N(C)C(=O)CCS(=O)(=O)c2cc3c(cc2Cl)NC(=O)CO3)cc1 -18.8%
COc1cc(NC(=O)NCCN2CCN(c3ccccc3)CC2)cc(OC)c1OC -11.2%
Cc1cccc(C(=O)Nc2ccc(S(=O)(=O)N(Cc3ccccc3)c3ccccc3)cc2)c1 -22.2%
Cc1cccc(NC(=O)CSc2nc3c(sc4ccccc43)c(=O)n2CCCC(=O)NC2CCCC2)c1 -15.8%
CCO[C@@H]1O[C@H](C(COCc2ccccc2)OCc2ccccc2)[C@H](OCc2ccccc2)[C@H]1O (some centres not stated) -3.33%
Cc1cccc(N2CCN(C(=O)C3CCN(c4ncnc5c4nc4n5CCCCC4)CC3)CC2)c1C 10.6%
CCOC(=O)C1CCCN(c2ncnc3c2nnn3C)C1 (configuration not stated) -10.5%
O=C(Nc1cccc(C(F)(F)F)c1)c1ccc2snnc2c1 -15.9%
CC(=O)c1ccc(NC(=O)Cn2c(=O)nc(-c3ccccc3)c3cc(Cl)ccc32)cc1 -1.46%
CCc1ccc(NC(=O)Nc2nnc(N(C)C3CCCCC3)s2)cc1 18.3%
CCOc1ccc(-c2nnc(SCC(=O)c3ccc(Br)cc3)n2-c2ccccc2)cc1 26.7%
O=C(CN1C(=O)CCc2cc(S(=O)(=O)N3CCOCC3)ccc21)NCc1ccc(Cl)cc1 -10.9%
CCOc1ccc(CCNC(=O)c2cc3c(s2)-c2c(C)cccc2OC3)cc1 -12.3%
Cc1nc2ccn(Cc3cccnc3)c(=O)c2cc1C(=O)Nc1ccc(F)cc1F -10.1%
COCCCNC(=O)c1ccc(C)c(-n2c(C)nc3cccnc32)c1 -12.1%
COCCn1c(SCC(=O)c2c[nH]c3ccccc23)nc2cc(C(=O)NC(C)C)ccc2c1=O 4.13%
O=S(=O)(Nc1ccc(F)cc1F)c1ccc(-n2cccn2)cc1 1.5%
Cc1ccc(OCC(=O)Nc2ccc3nc(SCCOc4ccccc4)sc3c2)cc1 2.27%
CCOC(=O)Cn1c(=O)oc2cc(S(=O)(=O)N3CCC(C(=O)OCC)CC3)ccc21 -15.6%
COc1ccc(NC(=O)Cn2nnc3sc4c(c3c2=O)CCCC4)cc1 -14.4%
Cc1ccc(NC(=O)CSc2nnc(-c3ccc(Br)cc3)o2)c(C)c1 -5.76%
Cc1cc(C)c(NC(=O)CSc2nc3ccncc3[nH]2)c(C)c1 -10.7%
COc1ccc(CNC(=O)c2ccc3nc(C(C)C)oc3c2)cc1OC -6.7%
Cc1ccc(NC(=O)CN2C(=O)COc3ccc(S(=O)(=O)Nc4ccccc4)cc32)c(C)c1 -14.1%
COC(=O)c1cc2oc3ccccc3c2n1Cc1c(C)cc(C)cc1C 6.58%
CCc1ccc(NC(=O)CCc2nnc3n(C)c(=O)c4sccc4n23)cc1 -5.16%
Cc1cc(C)c2c(=O)cc(C(=O)NCc3ccc(S(N)(=O)=O)cc3)oc2c1 -15.6%
COCCCNC(=O)CSc1nc(-c2ccc(OC)c(OC)c2)[nH]c1-c1ccc(F)cc1 -14.5%
Cc1ccc(C2=NC(c3ccccc3)=Nc3ccc(Cl)cc3N2)cc1 -14%
Cc1nc2cccnc2n1-c1cccc(C(=O)NCCc2ccc(S(N)(=O)=O)cc2)c1 -24.9%
COc1cc2ccccc2cc1C(=O)Nc1cccc(-c2nc3cc(C)ccc3o2)c1C -11.1%
Cc1nn2c(=O)cc(COC(=O)COc3ccc(F)cc3)nc2s1 -9.86%
Cc1cc(C)cc(NC(=O)Cn2c(=O)n(Cc3ccco3)c(=O)c3oc4ccccc4c32)c1 -10.3%
Cc1cccc(NC(=O)C2CCCN(S(=O)(=O)c3ccc(Br)s3)C2)c1 (configuration not stated) -17.1%
O=C(Nc1ccc(Cl)cc1C(F)(F)F)c1cc(S(=O)(=O)N2CCOCC2)ccc1F -0.52%
CCOc1ccc(S(=O)(=O)n2nc(C)c(S(=O)(=O)N3CCCCC3)c2C)cc1 -2.18%
COc1cc(CN2CCc3nc(N4CCN(c5ccccn5)CC4)ncc3C2)cc(OC)c1OC -10.8%
CC(=O)c1cc(-c2ccccc2)n(CCC(=O)NC(C)c2ccccc2)c1C (configuration not stated) -13.8%
COC(=O)c1ccccc1NS(=O)(=O)c1ccc2c(c1)CCCN2C(C)=O -8.48%
CCCC(=O)n1nc(-c2cccnc2)nc1NCc1ccc(OC)cc1 -28.6%
N/C(=N\N=C\c1ccc(Cl)cc1)N/N=C/c1ccc(Cl)cc1 -14.6%
COc1ccc(C(=O)Nc2cc3c(cc2N2CCCC2)n(C)c(=O)c(=O)n3C)cc1OC -17.2%
Cc1nn(CCCC(=O)NCc2ccccc2)c(=O)c2cc3sccc3n12 -17.9%
CC(C)(C)OC(=O)N1CCC(c2c(C(=O)NCc3ccco3)cnn2-c2ccccc2Cl)CC1 -10.4%
COc1ccc(C(=O)Nc2cc(S(=O)(=O)c3ccc(Cl)cc3)c(O)c(C)c2C)cc1 -16.1%
Fc1ccc(-n2ncc3c(NCCC4=CCCCC4)ncnc32)cc1 -10.2%
CCOc1ccc(OCC)c(NC(=O)C(NS(=O)(=O)c2cccs2)c2ccccc2)c1 (configuration not stated) 0.994%
COc1ccccc1NC(=O)Cn1nc(-c2ccc(C)cc2)c2c(c1=O)CCCC2 -1.24%
O=C(Nc1ccc(Br)cc1)C(Cc1ccccc1)NS(=O)(=O)c1cccc2nsnc12 (configuration not stated) -11.9%
CCOc1cc(C(=O)Nc2ccc(-c3nc4ccccc4s3)cc2Cl)cc(OCC)c1OCC 2.43%
Cc1cccc(C)c1NC(=O)Cn1c(=O)n(Cc2ccc3c(c2)OCO3)c(=O)c2oc3ccccc3c21 -8.87%
CCc1ccc(-n2nc3cc(C)c(NC(=O)c4cc(OC)cc(OC)c4)cc3n2)cc1 -6.33%
CC(C)(C)c1ccc(C(=O)NCC(c2cccs2)S(=O)(=O)c2cccs2)cc1 (configuration not stated) -9.64%
Cc1ccc(CNC(=O)c2c(C)oc3nc(C)nc(N4CCOCC4)c23)cc1 3.27%
COc1ccccc1CCNC(=O)Cc1c(C)c2cc3c(C)coc3cc2oc1=O -13.5%
Cc1cc(C)c2c(CC(=O)Nc3ccc(S(=O)(=O)N4CCCCC4)cc3)coc2c1 -18.4%
O=C(c1cc2ccccc2oc1=O)N1CCN(c2ccc(F)cc2)CC1 -3.56%
Cc1cccc(CSCc2ccc(C(=O)NCCc3ccccc3)o2)c1 0.517%
CC(C)c1ccc2oc3nc(N)c(C(=O)O)cc3c(=O)c2c1 -21.7%
N#Cc1c(-n2ncnc2-c2ccccc2C(F)(F)F)sc2c1CCCCC2 -7.62%
Cc1ccc(NCc2cccn2-c2nnc(N3CCC(C(=O)NCCC(C)C)CC3)s2)cc1 -6.47%
CCOC(=O)c1ccc(Nc2c(-c3cccc(O)c3)nc3nc[nH]n23)cc1 -13.1%
CCOc1cc(-c2ccc(OC(=O)c3ccc(C)cc3)c(OC)c2)cc(=O)c2c(C)oc(C)c12 -27.4%
Nc1c(-c2nc(-c3ccccc3)no2)nnn1CC(=O)Nc1cccc(F)c1 -17.1%
CCN(CC)CCN(C(=O)c1ccco1)c1nc2cc(C)cc(C)c2s1 -7.84%
CC(=O)c1ccc(NC(=O)CN(C)S(=O)(=O)c2cc3c(cc2Cl)NC(=O)CO3)cc1 -30.4%
CCCN(CCC)S(=O)(=O)c1ccc(C(=O)Nc2cccc(-c3nc4ccccc4[nH]3)c2)cc1 -16.2%
CC1CCC(NC(=O)c2ccc(CS(=O)(=O)c3cccc(C(F)(F)F)c3)o2)CC1 (configuration not stated) -6%
